One data set relates to P. aeruginosa PA103. More on the design: species or system porcine. Conditions: 48 hours.
The test system of data set [1] is HCE-T cells infected with P. aeruginosa PA103.

Where only a bound is given, the exact number is not on record here.

For `COc1c(N2C[C@@H]3CCCN[C@@H]3C2)c(F)cc2c(=O)c(C(=O)O)cn(C3CC3)c12` [moxifloxacin], in the data set with P. aeruginosa PA103, the “Bacterial load (CFU per cornea)” value is “markedly reduced bacterial burden but did not fully eradicate infection”. In addition, the “Lysis, ethidium homodimer-positive cells” value in data set [1] (PA103-infected, 2.5 μM moxifloxacin (sub-MIC), 10 h) stood at 38.8%. The “Difference in ethidium homodimer uptake compared to untreated controls” value in data set [1] (human) is given as less than 1%.
